{"source": "the supplement of paper PMC11417369", "note": "Some of the results follow.", "data": [{"system": "PF3D7_0420300 AP2 domain 1 (GST-tagged)", "assay": "gcPBM binding intensity (ln(normalized median fluorescence intensity)); higher = stronger DNA binding", "outline": "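GST-tagged P. falciparum DNA-binding domains, expressed in E. coli (about 25 μg on average), were applied for 1 h to an Agilent 4 × 180k array of primer-extended double-stranded 36-bp intergenic genomic probes plus negative controls. The binding buffer was 1× PBS with 1% milk, 0.2 mg/ml BSA, 0.5% salmon testes DNA and 0.03% Triton X-100. Bound protein was detected with Alexa488 anti-GST antibody and scanned at 488 nm. Binding intensity is the highest Masliner-normalised natural-log median intensity across replicate spots of either probe orientation.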", "values": [{"sequence": "TAAAAAAAAATATAATGTACGTATAAATATATATTA [XGTACX_site5085]", "gcPBM binding intensity (ln)": 9.24}, {"sequence": "TAAACATAATAATATACACACATATATTGATATATA [CACACA_site2144]", "gcPBM binding intensity (ln)": 9.57}, {"sequence": "AATTTTTTTTTTTTGTGTCCTCATAATTCTTCATTC [XGTACX_site5042]", "gcPBM binding intensity (ln)": 9.41}, {"sequence": "AAAATTAAAACCTACACACACATTTAAAAAAAAAAA [CACACA_site3068]", "gcPBM binding intensity (ln)": 9.88}, {"sequence": "ATTTTTTTGGTAATTTGTACATAATATATACATAAT [XGTACX_site3742]", "gcPBM binding intensity (ln)": 9.32}, {"sequence": "TTTTTTTTTTTTACATGTACTTATTTTAAATATAAA [XGTACX_site805]", "gcPBM binding intensity (ln)": 9.14}, {"sequence": "TATATTTATTTAAAAACATGCATTTTTTTTTTCCGT [TGCATGCA_site44]", "gcPBM binding intensity (ln)": 8.99}, {"sequence": "ATATATTTATAGACTTGTACATATATATACGATATA [XGTACX_site8890]", "gcPBM binding intensity (ln)": 9.15}, {"sequence": "TATATTATAGGTTGTGTACACATATTATATAGTACT [CACACA_site4583]", "gcPBM binding intensity (ln)": 9.42}, {"sequence": "TAAAAGTTTTTATACATACACACCTATAAATTAAGT [CACACA_site2446]", "gcPBM binding intensity (ln)": 9.39}, {"sequence": "CTTTATTATAAGATTACACACATGTCTTATAATTTA [CACACA_site5715]", "gcPBM binding intensity (ln)": 9.45}, {"sequence": "TACCAAAAAAAAAAAAATAAAAATAAAAAAAAAAAT [CACACA_negctrl_site1714]", "gcPBM binding intensity (ln)": 9.13}, {"sequence": "AAAATAAAAATAAAAGCACACATAAATATATATATA [CACACA_site8409]", "gcPBM binding intensity (ln)": 9.61}, {"sequence": "TAACTATTATAAAAATGTACAAATGAAAATATTTTT [XGTACX_site1438]", "gcPBM binding intensity (ln)": 9.2}, {"sequence": "TTCCTGTTAATTACAACACACAATTTTTATTTTATG [CACACA_site779]", "gcPBM binding intensity (ln)": 9.61}, {"sequence": "TTTCAACTTTTGTCATGTACACATAATTTTATTGCA [XGTACX_site6701]", "gcPBM binding intensity (ln)": 9.3}, {"sequence": "ATTTATTTATCAAATATTATCTTAAAAAAAAAAGAA [CACACA_negctrl_site1345]", "gcPBM binding intensity (ln)": 8.79}, {"sequence": "CATCTGGTATCTAATAGTACATATATATAATATCTT [XGTACX_site2774]", "gcPBM binding intensity (ln)": 9.3}, {"sequence": "AACAAAAGAAAAAAATATATATATTCGTCCTATTTT [CACACA_negctrl_site444]", "gcPBM binding intensity (ln)": 9.31}, {"sequence": "TATATATGCATTAAAGTGTTTTTTTTTTTTTTTTTT [CACACA_negctrl_site1353]", "gcPBM binding intensity (ln)": 9.11}, {"sequence": "TGTATAACCATAAATTGTACAGAAAAAAGTATAAAA [XGTACX_site1493]", "gcPBM binding intensity (ln)": 9.29}, {"sequence": "TTAAAAAATATATACGTTGATATAATACAACTTGAC [CACACA_negctrl_site1551]", "gcPBM binding intensity (ln)": 9.16}, {"sequence": "ATGTGTATATGTTAATGTACAAATTTTGAAAATGCC [XGTACX_site2685]", "gcPBM binding intensity (ln)": 9.5}, {"sequence": "ATTTTTTTTTTTTATGGTACACACACGCGTATGGTT [XGTACX_site3888]", "gcPBM binding intensity (ln)": 9.93}, {"sequence": "CGACTTTTAAAATATACACACATATAAATAAATATA [CACACA_site6523]", "gcPBM binding intensity (ln)": 9.37}, {"sequence": "TTACAATATAATAAATGTACATATAACAAATATATA [XGTACX_site2199]", "gcPBM binding intensity (ln)": 9.34}, {"sequence": "TTTTTTTTTTTTTGTAGTACATACTATTTTATTAAT [XGTACX_site950]", "gcPBM binding intensity (ln)": 9.22}, {"sequence": "TAGATGTATTTTTAAAGTACTTTTTAATATATAATC [XGTACX_site1431]", "gcPBM binding intensity (ln)": 9}, {"sequence": "AGAATTATATACACAAGTACATAATGACATATATAT [XGTACX_site5617]", "gcPBM binding intensity (ln)": 9.4}, {"sequence": "TAAAAAATTATATTCACACACATACACATATATATA [CACACA_site545]", "gcPBM binding intensity (ln)": 9.83}, {"sequence": "ATATTAAATATATACAGTACACATTACAATACAATA [XGTACX_site3221]", "gcPBM binding intensity (ln)": 9.65}, {"sequence": "CTTTGTAGTTGGTCCACACACATATCTGGAAGAATA [CACACA_site4834]", "gcPBM binding intensity (ln)": 9.39}, {"sequence": "TATTTTCCATGAGGTAGTACACATTAAAAAATCGTT [XGTACX_site6887]", "gcPBM binding intensity (ln)": 9.08}, {"sequence": "TAAGCGTTTTTTAAAACACACATAAGAACTAAATGA [CACACA_site1670]", "gcPBM binding intensity (ln)": 9.24}, {"sequence": "TTTCTTAAACCGTACAGTACACACCTTTATAATGTT [XGTACX_site434]", "gcPBM binding intensity (ln)": 9.46}, {"sequence": "TTACACCTTAGGATCTGTACAAATATATGACAAATC [XGTACX_site4333]", "gcPBM binding intensity (ln)": 9.18}, {"sequence": "TAATATTAAAAAGAGACACACAAAAATATTAAAAAA [CACACA_site3120]", "gcPBM binding intensity (ln)": 9.54}, {"sequence": "AAGGTTTTGGGTTTTAATTAATTTAATATGATTATA [XGTACX_negctrl_site147]", "gcPBM binding intensity (ln)": 9.34}, {"sequence": "TCTATACCTATTCTTACACACATATGTATAAATATA [CACACA_site6407]", "gcPBM binding intensity (ln)": 9.65}, {"sequence": "TTGACAACTCTTTTCATACACACAAAAAAAAAAAAA [CACACA_site2362]", "gcPBM binding intensity (ln)": 9.19}, {"sequence": "ACTAAAAAAATAAACACACAGATTTATATAATATAT [CACACA_site4884]", "gcPBM binding intensity (ln)": 9.6}, {"sequence": "ATACAATTCTTACATTGTACTTTTTTTTTTTATCAC [XGTACX_site6327]", "gcPBM binding intensity (ln)": 9.23}, {"sequence": "TGTATATCACATGAGAGGTGGAGATGGGGATAAATA [CACACA_negctrl_site1148]", "gcPBM binding intensity (ln)": 9.31}, {"sequence": "TACAACCTTTAGACAAGTACAAGAATTATATGTGGC [XGTACX_site4581]", "gcPBM binding intensity (ln)": 9.4}]}]}
